The results in this text go back to the RNAGym collection of RNA variant scans (doi:10.7554/elife.90254).

B1: LINE1-mini (parent)
chain: GGCAGAGCUCAACACAGCGUGGCAAAGUGGCUGUGGCUAGACUGCC

The source gives no read counts; variants with many changes may rest on few reads.

The data set covers variants of B1. In words: self-cleavage, relative activity (ratio to wild type); higher = more cleavage; in vitro, sequencing; the parent is a self-cleaving ribozyme.
Consider GGCUGAGCUCAACACAGCUUGGCAAAGUGGCUGUGGCUAGAGUGCC, for which the self-cleavage is 0.01.

Take GGCUGAGCUCAACACAGCUUGGCAAAUUGGCUGCGGCUAGUCUGCC: the self-cleavage turned out to be 0.07.

For GGCUAAGCUCAACACAGCGUGACAAAGUGGCUGUGGCUAGACUGCA, the self-cleavage turned out to be 0.13.

With GGCUUAGCUCAACACAGCGUGGUAAAGUGGCUGUGGCUAGACUGCC, the self-cleavage was 0.04.

As to GGCUGAGCUCAAAACAGCGUGGCAAAGUGGCUGUGGCUAGUCUGCC, the self-cleavage was determined as 0.07.

As for GGCUGAGCUCAACACAGCGUGACAAAGUGGCUGCGGCUAGACUGCC, the self-cleavage was determined as 0.1.

Regarding GGCUGAGCUGAACACAGCGAGACAAAGUGGCUGUGGCUAGACUGCC, the self-cleavage came to 0.02.

GGCUGAGCUCAACACAGCGUGGCAAAGUGGCUGUGGAUAUACUACC: the self-cleavage came to 1.48.

For the variant GGCUGAGCUCAACACAUCGUGUCAAAGUGGCUGUGGCUAGACUGCC, the self-cleavage was determined as 0.04.

For GGCUGAGCUCAAAACAGCGUGGCCAAGUGGCAGUGACUCGACUGCC, the self-cleavage amounted to 0.

Regarding GGCUUAGCACAACACAGAGUGUCAACGUGGCUGUGGCUAGACUGCC, the self-cleavage is 0.12.

For GGCUGAGCUGAACACAGCGUGGCAAAGUGGCUCUGACCAGACUGCC, the self-cleavage worked out at 0.01.

With GGCUGAGCUCAACACAGCCUGGCAAAGGGGCUGUGGCUAGGCUGCC, the self-cleavage was found to be 0.02.

Turning to GGCUGAGCUCAACACAGCGUUGCAAAGUUGCUGUGGCUAGACUUCC, the self-cleavage worked out at 0.22.

For GGCUGAGCUCAACAAAGCGUGACAAAGUGGCAGUGGCUAGACUGCC, the self-cleavage was 0.03.

Regarding GGCUGACCUCAACACAGGGUGACUAAGUGUCUGUGGCUAGACUACC, the self-cleavage is 0.02.

With GGCUGAGCUCAACACAGUGUGGCAAGGCGGCUGUUGCUAUACUGCC, the self-cleavage was 0.08.

Consider GGCUGAGCUCAACACAGCGUGGAAAAGUGGCUGUGGCUAGACAGCC, for which the self-cleavage was found to be 2.64.

For GGCUGAGCUCAACACAGCGUGACAAAGUUGCUGUGGCUACACUGCC, the self-cleavage was 0.15.

Regarding GGCUGAGCUCAACACAGCGUAGCAAAGUGGCUGUGGCUAGACUGCU, the self-cleavage turned out to be 0.14.

On to GGCUGAGCUUAACACAGCGCGGCAAAGUGGCUGUGGCUAGACUGCC, for which the self-cleavage turned out to be 0.

On to GGCUGAGCUCAACAAAGCGUGGCAAAGUGGCUGUGGCUAGACUGCA, for which the self-cleavage turned out to be 0.04.

On to GGCUGAGCUCAACACAGUGUGCCAAAGUGGCUGUGGCUAGACUGCC, for which the self-cleavage came to 0.04.

In the case of GGCUGAGCUUAACGCAGCGUGGCAAAGUGGCUGUGGCUAGACUGCC, the self-cleavage worked out at 0.03.

With GGCUGAGUUCAACACAGCGUGCCAAUGUGGCUGUGGCUAGACGGCC, the self-cleavage was 0.4.

Turning to GGCUGAGCUCAACACAGCGUGGCAAAGUGGGUCUGGCUAGACUGCC, the self-cleavage came to 0.

For the variant GGCUCAGCUCAACACAGCGUGGCAAAGUGGAUGUGGCUAGACUGCC, the self-cleavage turned out to be 0.07.

With GGCUGAUCUCAACACAGCGUGGCAAAGUGGCUGUGGCUAGAGUGCC, the self-cleavage was 0.03.

Consider GGCUGAGCUCAACACAGUCUGCCAAAGAGGCUGUGGCUAGAAUGCC, for which the self-cleavage is 0.02.

As to GGCUGAGCUCAACAAAGCGUGACAAGGUGGCUGUGGCUAGACUGCC, the self-cleavage was 0.03.

In the case of GGCUGAGCUUCGCACAGCGUGGCAAAGUGGCUCUGGCUAGACUGUC, the self-cleavage was 0.01.

Turning to GGCUGAGCUCAAAACAGCGUGGCAAAGUGGCUGUGGCUAUACUGCC, the self-cleavage came out at 0.02.

For GGCUGAGCUCAACACAUCAUGGCAAAGCGGCAGUGGCUAGACUGCC, the self-cleavage amounted to 0.06.

Take GGCUGAGCUCAACACACCCUGGCAAUUUGGCUGUGGCUAGACUGCC: the self-cleavage came to 0.09.

For GGCUGAGCUCAACACAGCGUGGCAAAGUGGCUGUGGCUAGAACGCC, the self-cleavage is 0.81.

For GGCUGAGCUCAACACAGCGUGGCAAAAUGACUGUGGCUAGACUGCC, the self-cleavage came to 0.21.

As to GGCUGAGCUCAAGACAGCGUGGCAAAGUGGCUGUGGCUAGAGUGCG, the self-cleavage is 0.03.

For GGCUGAGCUCAACAUAGCGUGGCAAAGUGGCUGUGUCUAGACUGCU, the self-cleavage was 0.05.

As to GGCUGAGCUCAACACAGCGUUGCAAAGUGCCUGUGGCUAGACUGCC, the self-cleavage is 0.12.

As for GGCUGAGCUCAACACAACGUGGCAAAGUGGCUGUGGCUAGACCGCC, the self-cleavage was found to be 0.01.

On to GGCUGAUCUCAAUACAGCGUGGCAAAGUAGCUGUGGCUAGACUGGC, for which the self-cleavage came to 0.52.

On to GGCUGAGCUCAACACAGCUUGGCAAAGUGGCUGUGUCUAGACUGCC, for which the self-cleavage came out at 0.03.

For the variant GGCUGAGCUCAACAUAGAGUGGCAAAGUGGCUGUGGCUAGACUGAC, the self-cleavage is 0.03.

For GGCUGAGUUCAACAAAGCGUGGCAAAGUGGCUGUGGCUAGACUGCC, the self-cleavage came out at 0.09.

Regarding GGCUGAGCUCAACACAGCGUGGUAAAGUGGCUGUGGUUAGACUGCC, the self-cleavage was determined as 0.03.

For the variant GGCUUAGCUCAACACAGCGUGGCAAAGUGGCUGUGGCUAGACUGUC, the self-cleavage is 0.07.

Regarding GGCUGAGCUCAACACAGCGUCGCAAAGUGGCUGUGGCUUGACUGCC, the self-cleavage amounted to 0.04.

Regarding GGCUGAGCUCAACACAGGGUGGCAAAGCGGCUGUGGCUAGACUGCC, the self-cleavage was found to be 0.05.

As to GGCUUAGGUCAACACAGCGUGGCAACGUGGUUGUGGCUAGACUGCC, the self-cleavage turned out to be 0.01.

For GGCUGAGCUCAACACAGGGUGGCAACGUGGCAGUGGCUAGACUGCC, the self-cleavage came to 0.17.

GGCUGAUCUCAACACAGCGUGGCAAAGUGGCUGUGGCUAGACUGUC: the self-cleavage stood at 0.52.

For the variant GGCUGAGCUCAACAAAGCGUGGCAAAGUGGCUAUGGCUAGACUGCC, the self-cleavage came to 0.02.

Turning to GGCUGAGCUGAACACAGCGUGGCAAAGUGGCUGCGGCUAGACUGCC, the self-cleavage is 0.02.

Turning to GGCUGAGCUCAACACAGCGUGUCAAAUUGGCUGUGGCUAGACUGCC, the self-cleavage amounted to 0.25.

Take GGCUGAGCUCAACACAGCGUGUCAAAGUGGCUAUGGCUAGACCGCC: the self-cleavage worked out at 0.2.

Regarding GGCUGAGCUCAACACAGCGUGCCCAAGUGGCUGUGGCUAGACUGCC, the self-cleavage worked out at 0.06.
